Test results published in PubChem BioAssay AID493208 (National Center for Advancing Translational Sciences (NCATS), 2011).
The whole screen tested about 44,000 compounds, of which about 340 (0.77%) were called active. About 5% were inconclusive and are not listed. Calls follow the shape of the dose curve; as a rule, active = well fitted inhibition curve with a large enough effect; inconclusive = small, poorly fitted or top-dose-only effect; inactive = flat fitted curve, though single readings scatter. The list shows a part of the results.

assay: Acumen qHTS Assay for Inhibitors of the mTORC1 Signaling Pathway in MEF (Tsc2-/-, p53-/-) Cells: Sytravon; settings: phospho-rpS6 immunofluorescence/PI, 24 h; series mostly up to 38.3 µM; activity change, negative = inhibition: at the top concentration;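 also: plate controls were DMSO for no effect and rapamycin for full effect; nearly all actives have a fitted effect of over 50% in size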
Outline: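 Read-out: phospho-S6 Alexa-488 intensity over PI intensity per well, scored as % active cells using thresholds from rapamycin (7.5 nM) and DMSO controls. Tsc2-/-, p53-/- MEFs exposed to compound for 24 h; PI cell count recorded as viability.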

Activity change, negative = inhibition, inactive:
CCCNS(=O)(=O)c1cc(-c2nn3c(C)nnc3c3ccccc23)ccc1C -11.2%, Cc1ccc2oc(-c3ccc(Cl)c(NC(=O)Cc4ccccc4)c3)nc2c1 -2.08%, COc1ccccc1CCNC(=O)Cc1ccc(NC(=O)N2CCSc3ncccc32)cc1 -9.39%, Cc1ccc(-n2c(=O)c3c4c(sc3n(Cc3cc(=O)n5cc(Cl)ccc5n3)c2=O)CCC4)cc1C -4.57%, CCOC(=O)c1ccccc1NC(=O)CN(c1cccc(C)c1C)S(=O)(=O)c1ccccc1 -10.6%, CC(=O)N1CCCc2cc(S(=O)(=O)N3CCCC(C(=O)NCc4ccccc4Cl)C3)ccc21 (stereo unspecified) 6.2%, CCc1ccc(-c2nn(CC(=O)NC3CCCCC3)c3c2cnc2ccc(F)cc23)cc1 -6.75%, CCOc1ccccc1NC(=O)C1CCN(S(=O)(=O)c2ccc3[nH]c(=O)oc3c2)CC1 -2.38%, CC1CCc2c(cc(-c3ccccc3)n2-c2ccc(C(=O)NC(C)C)cc2)C1 (stereo unspecified) -14.2%, CCc1cccc(OCC(=O)Nc2ccc(S(=O)(=O)Nc3ncccn3)cc2)c1 -0.716%, CC(C)(C)c1ccc(OCc2nc3ccccc3n2CCOc2ccccc2)cc1 0.568%, Cc1cccc(C)c1OCc1nc2c3cnn(-c4ccccc4F)c3ncn2n1 -9.24%, CC(=O)c1ccc(S(=O)(=O)N2CCn3cccc3C2c2ccccc2F)cc1 (stereo unspecified) -2.14%, Cc1cc(C)cc(NC(=O)Cc2csc(C)n2)c1 -4.47%, O=C(CCS(=O)(=O)c1cc(Br)cc2c1N(C(=O)C1CC1)CC2)N1CCN(c2cccc(Cl)c2)CC1 8.62%, COc1ccc(-c2nc3ccccc3n3c(-c4cccc(C)c4)c4c(=O)n(C)c(=O)n(C)c4c23)cc1OC 6.33%, CCC(C)NC(=O)c1c(C)oc2ncn(CC(C)C)c(=O)c12 (stereo unspecified) 2.78%, CCCCNC(=O)C1CCC(Cn2c(=O)c3sccc3n(Cc3ccccc3)c2=O)CC1 (stereo unspecified) 1.35%, O=C(Cn1c(=O)n(CCc2ccccc2)c(=O)c2cccnc21)Nc1ccc(F)cc1 2.1%, CCC(=O)N1CCc2cc(S(=O)(=O)NC(C(=O)NCCc3ccc(OC)c(OC)c3)C(C)C)ccc21 (stereo unspecified) -0.191%, Cc1cc(C)c(NC(=O)c2nc3ccccc3nc2N2CCCCC2)c(C)c1 -5.07%, CC1=C(C(=O)OC2CCCC2)C(c2c(Cl)cccc2Cl)CC(=O)N1 (stereo unspecified) -3.44%, CCCCNC(=O)CSc1nc2cc3c(cc2c(=O)n1CCCC(=O)NCCc1ccc(OC)c(OC)c1)OCO3 -0.253%, Cc1cc(C(=O)N2CCN(c3ccccc3)CC2)c2c(C)nn(-c3cccc(F)c3)c2n1 -5.4%, COc1cc(NC(=O)C2CCN(C(=O)c3sc4nc[nH]c(=O)c4c3C)CC2)cc(OC)c1OC -1.55%, Cc1ccc(N2C(=O)c3n[nH]c(C)c3C2c2ccc(Cl)cc2)cc1 (stereo unspecified) -10.4%, Cc1cc(C)cc(NC(=O)CSc2oc(-c3ccccc3)nc2S(=O)(=O)c2ccc(Cl)cc2)c1 -4.51%, CCOC(=O)c1ccccc1NC(=O)Cn1ncc2c1-c1ccccc1OC2 0.872%, CCOC(=O)c1[nH]c2c(c1Cc1ccccc1OC)C(=O)CC(c1ccc(OC)cc1)C2 (stereo unspecified) -2.02%, Cc1ccc(CNC(=O)c2nn(-c3ccc(Cl)cc3)nc2CO)cc1 3.08%, Cc1ccccc1CSc1nnc2[nH]c(=O)cc(-c3ccccc3)n12 0.988%, CCc1ccc(-n2c(=O)c3c4c(sc3n(Cc3cc(=O)n5c(C)cccc5n3)c2=O)CCC4)cc1 0.991%, Cc1ccc(NC(=O)Cn2nc(C(F)(F)F)c3c2CCCC3)cc1C 0.721%, CCc1ccccc1NS(=O)(=O)c1ccc2nc(-c3ccccc3)[nH]c2c1 -19%, CC(C)OCCCNC(=O)C(=O)Nc1c2c(nn1-c1ccccc1)CS(=O)(=O)C2 -20.5%, Cc1ccc2c(c1)N(CC(=O)NCCc1ccccc1)C(=O)CO2 -3.49%, CCOC(=O)c1c(C)[nH]c(C)c1S(=O)(=O)N1CCC(C(=O)Nc2ccc(OCC)cc2)CC1 -4.9%, CCCCn1cc(S(=O)(=O)c2cc(C)ccc2C)c(=O)c2cc(F)c(N3CCC(C)CC3)cc21 -8.55%, CC(C)OCCCNc1ncnc2sc3c(c12)CCCC3 -20.2%, Cc1ccc(C)c(Cn2c(=O)n(CCCCC(=O)NCc3ccc4c(c3)OCO4)c(=O)c3ccccc32)c1 -20.7%, CCCC(=O)Nc1cc2nn(-c3ccccc3)nc2cc1C 4.59%, CCc1ccccc1NC(=O)Nc1c(C)n(C)n(-c2ccccc2)c1=O 1.35%, CCc1cccc(NC(=O)CN(c2ccc(C)c(C)c2)S(=O)(=O)c2ccsc2C(=O)OC)c1 -16.3%, Cc1ccc(C)c(N2CCN(C(=O)CN3C(=O)COc4ccc(S(=O)(=O)N5CCCC5)cc43)CC2)c1 0.425%, COc1ccc(C(=O)NCC(c2ccco2)S(=O)(=O)c2ccc(F)cc2)cc1 (stereo unspecified) -7.98%, CCOC(=O)c1ccc(N2C(=O)c3[nH]nc(-c4ccc(C)cc4)c3C2c2cccs2)cc1 (stereo unspecified) -7.68%, CCCc1nc2nc(C)c(NS(=O)(=O)c3ccc(CC(C)C)cc3)c(=O)n2[nH]1 2.11%, CSc1ncc(C(=O)Nc2ccccc2C(F)(F)F)c(-c2ccccc2)n1 -10.8%, CCCn1c(CCC(=O)Nc2cc(C(=O)OC)cc(C(=O)OC)c2)nc2cccnc21 -15%, CCCCOc1ccc(Cn2c(=O)sc3ccccc32)cc1OC -4.84%, CCCn1c(CCC(=O)Nc2cc(OC)cc(OC)c2)nc2cccnc21 -2.07%, COC(=O)c1scc(-c2ccc(C)cc2)c1S(=O)(=O)Nc1cc(Cl)c(OC)cc1OC -26.3%, CCOC(=O)c1[nH]cnc1C(=O)Nc1cccc(OC)c1 0.435%, Cc1ccccc1CCNC(=O)c1ccc2c(c1)nc1n2CCOC1 0.0602%, Cc1cc(NC(=O)CCn2c(=O)c3cccn3c3cccnc32)ccc1Br -4.9%, CCC(=O)N1c2ccccc2CC1C(=O)NCCc1cc(OC)c(OC)c(OC)c1 (stereo unspecified) 5.62%, CCCN1CCN(c2nnc(-n3cccc3C(=O)Nc3cc(Cl)ccc3C)s2)CC1 -5.23%, CCSc1ncc(Cl)c(C(=O)Nc2nc3ccc(S(C)(=O)=O)cc3s2)n1 1.53%, COc1ccc(-n2c(=O)c3sc4ccccc4c3n(C)c2=O)cc1 1.86%, Cc1ccc(NC(=O)C2CCCN(S(=O)(=O)c3cccc4nsnc34)C2)cc1C (stereo unspecified) -3%, CCOC(=O)Cc1ccc(NC(=O)N2CCSc3ccccc32)cc1 1.6%, Cc1ccc(-c2nc(CS(=O)CC(=O)NCc3ccccc3Cl)c(C)o2)cc1 (stereo unspecified) 6.53%, COCCNC(=O)C1CCN(C(=O)c2cc3sccc3n2Cc2ccc(Cl)cc2)CC1 1.47%, CCCN(CCC)CCCNC(=O)C1CCCN(Cc2nc(-c3ccc(Cl)cc3)oc2C)C1 (stereo unspecified) -7.55%, COc1ccc(C2(Nc3cccc(F)c3)C(=O)c3ccccc3C2=O)cc1 -0.0597%, COc1ccccc1NC(=O)CSC1=Nc2ccccc2C2=NC(CCC(=O)NCc3ccco3)C(=O)N12 (stereo unspecified) -0.563%, O=c1ccc2cc(S(=O)(=O)Nc3ccc(F)c(Cl)c3)ccc2[nH]1 0.354%, CCOc1ccc2nc(SCC(=O)Nc3ccc(F)cc3)nc(-c3ccccc3)c2c1 -4.36%, O=S(=O)(c1ccc(Cl)cc1)c1nc(-c2cccs2)oc1SCc1ccc(F)cc1 0.433%, COc1cccc(CNC(=O)Cc2c(C)c3c(cc(C)c4c(C)c(C)oc43)oc2=O)c1 -6.01%, Cn1nnc2c(NCc3ccc(Cl)cc3)ncnc21 -9.15%, CC1=C(C(=O)Nc2ccc(Cl)cc2)C(c2ccccc2F)n2nc(SCc3cccc(Cl)c3)nc2N1 (stereo unspecified) -16%, COc1ccc(OC)c(NC(=O)C2Cc3ccccc3CN2S(=O)(=O)c2ccc(F)cc2)c1 (stereo unspecified) -2.95%, Cc1ccc(Cn2c(=O)n(CCc3ccc(Cl)cc3)c(=O)c3ccccc32)cc1 2.23%, CCc1ccc(CNC(=O)c2cc3n(n2)CCCN(Cc2ccccc2)C3=O)cc1 -9.02%, COc1ccc(NC(=O)Cn2c(=O)n(Cc3ccccc3OC)c(=O)c3cccnc32)cc1Cl 0.954%, Cc1ccc(Nc2c(-c3ccc(C)s3)nc3ccccn23)cc1 0.481%, COC(=O)c1cccc(NC2=NS(=O)(=O)c3ccccc32)c1 -1.44%, Cc1cc(Cl)ccc1NC(=O)Cc1ccc(NC(=O)N2CCCCc3ccccc32)cc1 2.16%, COc1ccc(C)cc1NC(=O)C1CCN(S(=O)(=O)c2cc(Br)cc3c2N(C(C)=O)CC3)CC1 -0.847%, COc1ccc(C)c2sc(N3CCN(C(=O)c4cccc(F)c4)CC3)nc12 -0.303%, CCOc1ccccc1NC(=O)N(Cc1ccc(C)o1)C1CCN(C(C)=O)CC1 1.21%, Cc1ccc(-c2cc3ncc4c(n3n2)-c2cc(F)ccc2OC4)cc1 4.18%, CCOC(=O)CNC(=O)N1CCCN(S(=O)(=O)c2ccc3c(ccn3CC)c2)CC1 -4.84%, CCc1nn2c(=O)cc(COC(=O)c3ccccc3)nc2s1 -1.79%, CCn1c(SCc2c(F)cccc2Cl)nc(=O)c2c(C(=O)OC)cc(C3CC3)nc21 2.51%, O=C(c1ccccc1Br)N(Cc1ccco1)Cc1ccco1 0.79%, CCc1ccc(C(=O)c2cn(CC(=O)Nc3cccc(OC)c3)c3cc4c(cc3c2=O)OCO4)cc1 0.0239%, CCOc1ccccc1NC(=O)CN(C)S(=O)(=O)c1ccc(C(=O)N2CCOCC2)s1 14.3%, O=c1c(=O)n(-c2ccc(F)c(F)c2)ccn1Cc1ccc(F)cc1Cl 8.84%, COc1ccc(C)cc1NC(=O)C1CCCN(c2ncnc3onc(C)c23)C1 (stereo unspecified) -0.381%, CCOC(=O)C1=C(CS(=O)(=O)c2ccc(F)c(C)c2)NC(=O)NC1c1ccccc1OC (stereo unspecified) -11%, CCc1nn(CC(=O)N2CCCCC2)c(=O)c2cc3occc3n12 -8.92%, CCOC(=O)c1noc2ncn(CC(=O)Nc3cccc(C(F)(F)F)c3)c(=O)c12 -8.82%, Cc1cccc(NC(=O)CCn2cnc3ccccc3c2=O)c1 -24.4%, CCOc1ccc(NC(=O)N2CCN(c3nnc(C)c4c(C)n(-c5ccccc5)nc34)CC2)cc1 -6.55%
